Among all 7,900 compounds or so, about 400 (5.1%) showed an effect of 50% or more. Some of the results follow.
Target: Parkinson's disease protein 7 (PARK7/DJ1) (human, UniProt Q99497)
Assay: primary screen, percent inhibition; read as competition with a fluorescent probe by fluorescence polarization; higher = more effect of the substance
Details: 100 µM
In short: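 Fluorescence-polarization probe displacement (JYQ-107, 20 nM final, 2 h) after 2 h preincubation of PARK7 (0.2 μM final) with each fragment at 100 μM final. Read-out ex/em 480/520 nm; remaining activity derived from FP signal loss relative to reference controls.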

Chain of Parkinson's disease protein 7 (PARK7/DJ1) (Q99497 whole entry, looked up): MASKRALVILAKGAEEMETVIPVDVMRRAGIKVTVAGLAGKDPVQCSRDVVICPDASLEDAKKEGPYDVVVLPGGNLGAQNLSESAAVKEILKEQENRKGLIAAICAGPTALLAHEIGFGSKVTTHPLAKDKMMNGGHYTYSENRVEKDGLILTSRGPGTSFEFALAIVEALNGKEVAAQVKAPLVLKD

| SMILES | Inhibition % [%] |
| --- | --- |
| O=C(CCl)NNC(=O)C1CCC1 | 0.122 |
| C=CC(=O)NC(C)c1cnn(C)c1C (stereo not drawn) | 5.96 |
| OB(O)c1ccc(OCc2ccccn2)cc1 | 0.486 |
| C=CC(=O)NCC1CCN(CCC)CC1 | 34.8 |
| O=C1N[C@@H]2CCCC[C@H]12 (racemic) | 7.88 |
| CS(=O)(=O)Nc1ccc(C(=O)CCl)cc1 | 75.1 |
| CCCNC(=O)C(C#N)=Cc1cnc2c(C)cccn12 | 0.295 |
| C=CC(=O)NCC1(N2CCOCC2)CC1 | 4.75 |
| O=C(CCl)Nc1ccc(NC(=O)c2cccs2)cc1 | 28 |
| O=C(CCl)N(Cc1ccccc1)C1CC1 | 18.1 |
| CCc1nccn1S(=O)(=O)c1cc(Cl)ccc1OC | 2.99 |
| O=C(NC1CCN(C2CCOC2=O)CC1)c1cccs1 (stereo not drawn) | 7.52 |
| O=S(=O)(F)c1ccc(S(=O)(=O)Nc2nccs2)cc1 | 64 |
| ClCC1COCCO1 (stereo not drawn) | -2.68 |
| NC(=O)c1ccc(NS(=O)(=O)C=Cc2ccccc2)cc1 | 5.56 |
| N#Cc1cccc(OCC(F)(F)F)n1 | -0.809 |
| Cc1cc(C)n(CC2CCCCN2C2CC(C)OC2=O)n1 (stereo not drawn) | 7.52 |
| N#Cc1ccn(-c2ccccc2)n1 | 6.25 |
| C=CC(=O)NC1CCN(C)C1c1ccccc1 (stereo not drawn) | 6.77 |
| N#Cc1ncc(O)cn1 | 2.25 |
| O=C(NCCC1=CCOCC1)c1cccnc1S | 2.7 |

| SMILES | Inhibition % [%] |
| --- | --- |
| O=C(O)c1ccnnc1S | 83.3 |
| Cl.ClCCNC1CCCCC1 | 1.36 |
| NC(=O)c1coc(C(=O)CCl)c1 | 96.3 |
| CC1Cc2cc(S(N)(=O)=O)ccc2N1C(=O)CCl (stereo not drawn) | 23.7 |
| Cc1ccc(NC(=O)Cn2cnc(C#N)n2)cc1C | -3.95 |
| Cc1cc(S(=O)(=O)n2cccn2)c(Cl)cc1Cl | 11.9 |
| COc1ccc(C=C(C#N)C(N)=O)c(OC)c1 | 1.55 |
| C=CC(=O)N1CCN(C(=O)CC(F)(F)F)CC1 | 12.4 |
| O=C(Nc1ccc(F)nc1)c1cccnc1S | 8.16 |
| OCC1(CC2CO2)CCOCC1 (stereo not drawn) | 15.8 |
| N#Cc1ncccc1OCCc1ccccc1 | 13.6 |
| Cn1cc(CN[C@H]2CCO[C@@H]2c2ccnn2C)cc1C#N | 7.61 |
| CN(C)C(=O)Oc1ccc2ccccc2c1 | 2.87 |
| O=c1c2ccccc2cnn1CC1CO1 (stereo not drawn) | 8.19 |
| N#Cc1ncn(Cc2ccc(F)cc2Cl)n1 | 0.898 |
| CN(C)c1oc(CO)nc1C#N | 4.81 |
| C=CC(=O)NC(c1nc(C)cs1)C(F)(F)F (stereo not drawn) | 6.31 |
| C=CC(=O)NC(c1ccncc1)c1cc(F)ccc1F (stereo not drawn) | 5.39 |
| C=CC(=O)NCCN1C(=O)Cc2ccccc21 | 11 |
| CO[C@H]1C[C@@H](C(N)=O)N(Cc2cc(C#N)n(C)c2)C1 | 9.5 |
| C=CC(=O)N1CCOC(CCC)C1 (stereo not drawn) | 11 |

| SMILES | Inhibition % [%] |
| --- | --- |
| Cc1cc(C)nc(C#N)c1 | 9.14 |
| CC1CC(NC(=O)c2c[nH]c(C#N)c2)=NO1 (stereo not drawn) | 11.6 |
| Cc1ccsc1C=C(C#N)C(=O)NCC1CCCO1 (stereo not drawn) | 2.9 |
| C=CC(=O)NC1CCN(c2ccccc2)C1=O (stereo not drawn) | 10.9 |
| C=CC(=O)N1C[C@@H]2CSC[C@]2(C)C1 (racemic) | 9.51 |
| C=CC(=O)N1CCSCC1(C)C | 9 |
| O=C(CCl)N1CCCCCCC1 | 28.6 |
| O=C(CN1C(=O)CCC1=O)Nc1ccc(Cl)cc1F | 1.92 |
| Cc1ccc2nc(-c3ccc(NC(=O)CCl)cc3)sc2c1 | 5.11 |
| CC1CC1C(=O)N1CCN(C(=O)Oc2ccccc2)CC1 (stereo not drawn) | 3.44 |
| C=CC(=O)N(CC(N)=O)C1CC1 | 10.4 |
| C=CC(=O)N1CCN(C2CC2)C(C#N)C1 (stereo not drawn) | 17 |
| N#CC(=Cc1cccs1)C(N)=O | 10.8 |
| Cc1cn(S(=O)(=O)c2ccc(Cl)c(C)c2Cl)cn1 | 7.53 |
| Cc1csc(CC(=O)NNC(=O)CCl)n1.Cl | 0.415 |
| CN(Cc1ccc(O)cc1)c1ccc(C#N)nc1 | 8.06 |
| C=CC(=O)NC[C@@H]1C[C@H](F)CN1c1nnc(C)o1 | 6.39 |
| CCOC(=O)c1c(NC(=O)CCl)sc2c1CCC(C)C2 (stereo not drawn) | 0.794 |
| CC1CC1C(=O)N1CC(CS(=O)(=O)F)C1 (stereo not drawn) | 16.8 |
| O=C1OCCC1Sc1nc2ccc(Cl)cc2[nH]1 (stereo not drawn) | 7.91 |
| CC(N)c1ccc(B2OC(C)(C)C(C)(C)O2)cc1F.Cl (stereo not drawn) | 2.11 |
